Whole data set: some 33,000 sequences, median “E-score (-0.5 to 0.5)” near -0.01, cut for the highest 2% near 0.26. The list shows a part of the results.
Each sequence was assayed against Ste12 (UniProt P13574) (assay: PBM E-score (8-mer binding enrichment) (E-score (-0.5 to 0.5)); higher = stronger / more preferred TF binding; most listed sequences are background and not binding sites). Details: protein concentration: 200 nM; construct: GST-DNA-binding domain.
In short: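 GST-tagged yeast TFs (full-length or DNA-binding domain) were made by PURExpress in vitro transcription/translation and applied at about 100-200 nM to universal all-10-mer Agilent arrays. The arrays were made double-stranded by primer extension, on fresh or once-stripped slides. Bound protein was detected with fluorescent anti-GST, and scans were normalised with masliner. Each ungapped eight-base word, pooled with its reverse complement, received an E-score (modified Wilcoxon-Mann-Whitney statistic) from the Universal PBM Analysis Suite.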
For AGGAGGGA, the “PBM E-score” value was -0.0567.
For GTTTCAAA, the “PBM E-score” value was 0.47.
For AGGTCGCA, the “PBM E-score” value was -0.158.
With GTCCGGAA the “PBM E-score” value was -0.0712.
For ACTAGGCA, the “PBM E-score” value was -0.129.
CATCGTGG was tested, and the “PBM E-score” value was 0.0956.
ACCGTGGG was tested, and the “PBM E-score” value was -0.0959.
With TGCAGTAA the “PBM E-score” value was 0.0362.
ATTGGGTG was tested, and the “PBM E-score” value was 0.222.
With ATTTTGCC the “PBM E-score” value was 0.116.
With ACAGAGAT the “PBM E-score” value was 0.0239.
In the case of CACGCACG, the “PBM E-score” value is reported as -0.19.
ATTTGCAA was tested, and the “PBM E-score” value was 0.087.
ATCACTAC was tested, and the “PBM E-score” value was -0.117.
TGTCTTAA was tested, and the “PBM E-score” value was -0.0432.
In the case of AGTTCGGA, the “PBM E-score” value is reported as 0.0538.
In the case of AACACCGC, the “PBM E-score” value is reported as 0.0776.
In the case of AAAATCAA, the “PBM E-score” value is reported as 0.146.
With GGAACGCC the “PBM E-score” value was -0.017.
With ACGGCCTG the “PBM E-score” value was -0.105.
For CCACCTGA, the “PBM E-score” value was 0.145.
With GCAGCTCA the “PBM E-score” value was -0.172.
In the case of CAGCGATC, the “PBM E-score” value is reported as -0.00075.
For TGATAACA, the “PBM E-score” value was 0.137.
ACTGCGTG was tested, and the “PBM E-score” value was -0.191.
With GCAATCTA the “PBM E-score” value was -0.0416.
For TAAAGAGA, the “PBM E-score” value was 0.0126.
With GTCACTCA the “PBM E-score” value was 0.0601.
With CAGGCGGA the “PBM E-score” value was 0.0481.
In the case of GATTGGAC, the “PBM E-score” value is reported as -0.0765.
ATCCGTCG was tested, and the “PBM E-score” value was -0.0398.
In the case of TAATCCCA, the “PBM E-score” value is reported as -0.00372.
CCTAGAAC was tested, and the “PBM E-score” value was 0.0121.
In the case of CCTATCTA, the “PBM E-score” value is reported as -0.0667.
For AAAACCAG, the “PBM E-score” value was 0.228.
For ATGGAATA, the “PBM E-score” value was 0.117.
In the case of CGCCTCAG, the “PBM E-score” value is reported as -0.0219.
In the case of ATTTGATC, the “PBM E-score” value is reported as 0.0321.
For AATACCCC, the “PBM E-score” value was 0.036.
With CCACTAAA the “PBM E-score” value was 0.0683.
For ACAACGCA, the “PBM E-score” value was 0.0218.
AGTTGGAG was tested, and the “PBM E-score” value was -0.0262.
GCAACCAC was tested, and the “PBM E-score” value was 0.0313.
With ACCCATTG the “PBM E-score” value was -0.00501.
In the case of ACGTTGCC, the “PBM E-score” value is reported as -0.202.
CTGGTCTC was tested, and the “PBM E-score” value was -0.259.
With GAACTGAC the “PBM E-score” value was -0.0881.
In the case of ATATTGCG, the “PBM E-score” value is reported as 0.148.
In the case of ACTCATTA, the “PBM E-score” value is reported as 0.136.
ACAGAGCA was tested, and the “PBM E-score” value was 0.156.
For GTCCTCGA, the “PBM E-score” value was -0.18.
In the case of AATATCTC, the “PBM E-score” value is reported as 0.127.
With CAACGCGC the “PBM E-score” value was 0.00398.
AGCAACAA was tested, and the “PBM E-score” value was 0.0907.
For ACGGTGAT, the “PBM E-score” value was -0.122.
In the case of AAAGCACA, the “PBM E-score” value is reported as 0.028.
In the case of GGTTACAA, the “PBM E-score” value is reported as 0.284.
In the case of AATACATA, the “PBM E-score” value is reported as 0.218.
In the case of AACGGGCG, the “PBM E-score” value is reported as -0.0159.
For AACCTGCA, the “PBM E-score” value was 0.0338.
GGATAAAC was tested, and the “PBM E-score” value was 0.135.
AAACTAGC was tested, and the “PBM E-score” value was -0.0237.
With GAGAATAA the “PBM E-score” value was 0.182.
CCCCGTGA was tested, and the “PBM E-score” value was -0.0997.
With CGCAGGTC the “PBM E-score” value was -0.144.
For AAGAAATC, the “PBM E-score” value was -0.0981.
With CATTAGAC the “PBM E-score” value was -0.0855.
For GCTCATGA, the “PBM E-score” value was -0.145.
GAGGGGTA was tested, and the “PBM E-score” value was 0.0428.
With AGAGCGAA the “PBM E-score” value was -0.099.
With CTGAGACC the “PBM E-score” value was 0.152.
GATCTCAA was tested, and the “PBM E-score” value was 0.077.
ACTGGCAC was tested, and the “PBM E-score” value was -0.162.
For AGTGCCAA, the “PBM E-score” value was -0.0734.
In the case of GGATGGCC, the “PBM E-score” value is reported as -0.313.
With AGCGAGTA the “PBM E-score” value was 0.021.
In the case of ATACCTAA, the “PBM E-score” value is reported as 0.179.
For ATACGCCG, the “PBM E-score” value was 0.204.
For TATAAATA, the “PBM E-score” value was 0.228.
GGGTTTAC was tested, and the “PBM E-score” value was -0.0107.
In the case of CCAGGAAG, the “PBM E-score” value is reported as -0.122.
GCTAGTAC was tested, and the “PBM E-score” value was -0.173.
AACTGTAT was tested, and the “PBM E-score” value was 0.134.
CCTCATAG was tested, and the “PBM E-score” value was -0.0735.
With AGAGGCAG the “PBM E-score” value was -0.14.
With AATAGTGA the “PBM E-score” value was 0.00582.
In the case of AGCACGTG, the “PBM E-score” value is reported as -0.122.
In the case of AGGGAGTG, the “PBM E-score” value is reported as -0.107.
In the case of ACTAGCCC, the “PBM E-score” value is reported as -0.00126.
TCATCGCA was tested, and the “PBM E-score” value was 0.0489.
In the case of CTGGCTCC, the “PBM E-score” value is reported as -0.256.
For AGAGCCTC, the “PBM E-score” value was -0.172.
In the case of ACGGGAAG, the “PBM E-score” value is reported as -0.144.
For GTTCCTTA, the “PBM E-score” value was -0.0482.
